# Source: article PMC4336329 (PLoS ONE, 2015)
# Screen size: about 310,000 compounds; about 14,000 (4.5%) showed an effect of 50% or more. The effect is printed as a negative number. The list shows a part of the results.
# Target: human ether-à-go-go-related gene (hERG) potassium channel (human, UniProt Q12809)
# Assay: primary screen, population patch clamp on CHO cells stably expressing hERG
# 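Also: peak tail current of the secondary pulse compared with the same well before compound.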
# human ether-à-go-go-related gene (hERG) potassium channel, sequence (Q12809 whole entry, looked up): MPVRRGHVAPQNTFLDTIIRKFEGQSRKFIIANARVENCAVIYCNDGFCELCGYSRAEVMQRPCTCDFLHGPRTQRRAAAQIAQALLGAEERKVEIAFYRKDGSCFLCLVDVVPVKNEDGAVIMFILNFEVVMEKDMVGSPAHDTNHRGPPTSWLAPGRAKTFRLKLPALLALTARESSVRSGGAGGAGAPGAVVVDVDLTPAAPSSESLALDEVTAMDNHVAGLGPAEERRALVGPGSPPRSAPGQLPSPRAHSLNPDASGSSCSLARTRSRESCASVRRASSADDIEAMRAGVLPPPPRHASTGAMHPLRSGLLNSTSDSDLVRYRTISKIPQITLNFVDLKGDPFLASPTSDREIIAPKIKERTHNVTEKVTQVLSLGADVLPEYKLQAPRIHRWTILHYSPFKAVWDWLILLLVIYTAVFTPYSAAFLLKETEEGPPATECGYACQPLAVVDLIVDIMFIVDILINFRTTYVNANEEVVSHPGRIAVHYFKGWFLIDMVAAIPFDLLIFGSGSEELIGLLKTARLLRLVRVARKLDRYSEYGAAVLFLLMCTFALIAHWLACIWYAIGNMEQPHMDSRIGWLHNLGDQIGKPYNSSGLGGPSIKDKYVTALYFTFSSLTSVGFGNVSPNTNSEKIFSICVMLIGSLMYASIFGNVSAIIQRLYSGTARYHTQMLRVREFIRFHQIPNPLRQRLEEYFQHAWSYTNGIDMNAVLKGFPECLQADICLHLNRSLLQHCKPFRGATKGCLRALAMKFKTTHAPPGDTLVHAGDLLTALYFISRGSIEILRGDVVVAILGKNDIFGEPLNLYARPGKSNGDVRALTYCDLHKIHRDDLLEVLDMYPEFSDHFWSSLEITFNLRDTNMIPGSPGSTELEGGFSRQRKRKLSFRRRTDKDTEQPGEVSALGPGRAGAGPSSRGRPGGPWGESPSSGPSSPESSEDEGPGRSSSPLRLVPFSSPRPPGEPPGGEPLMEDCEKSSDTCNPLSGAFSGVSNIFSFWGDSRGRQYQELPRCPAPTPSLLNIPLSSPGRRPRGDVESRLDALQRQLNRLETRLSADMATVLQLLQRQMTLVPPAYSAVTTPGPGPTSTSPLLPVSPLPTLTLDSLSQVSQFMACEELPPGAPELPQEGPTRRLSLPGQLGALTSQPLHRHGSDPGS
row,SMILES,"hERG current change (%, negative = inhibition) at 10uM [%]"
1,COc1cccc(CN2CCCN(S(=O)(=O)c3ccc(Br)cc3)CC2)c1,-58.6
2,Cc1ccc(NC(=O)c2cc([N+](=O)[O-])ccc2Cl)c(O)c1,-4.12
3,Cc1ccc2c(c1)COc1c3ccc(C(=O)N[C@@H](CO)C(C)C)cc3nn1-2,-0.828
4,S=C(Nc1ccccc1Cl)N(Cc1ccccc1)Cc1cccnc1,-6.03
5,O=C(c1cc2ncc(Br)cn2n1)N1CCCCC1,-3.2
6,C=CCn1c(SCC(=O)N(CCOC)c2c(N)n(CC(C)C)c(=O)[nH]c2=O)nc2ccccc21,7.1
7,Cc1ccc(Sc2ccc(NC(=O)c3ccc(S(C)(=O)=O)cc3Cl)cc2)cc1,2.09
8,O=C(NCCCCO)c1ccc2c3c(cccc13)CC2,7.52
9,Cn1c(=O)c2[nH]c(SCC(=O)c3ccc(F)cc3)nc2n(C)c1=O,13.5
10,COC(=O)C1=C(c2ccc(C(C)=O)cc2)C[C@@H]2CC[C@H]1N2C(=O)N1CCCCC1,-16.9
11,Cc1ccc(NC(=O)c2c(C)nn(-c3ccccc3)c2Cl)c(C)c1,19.6
12,O=C(Nc1nc2ccccc2s1)c1cc(-c2ccccc2)nn1-c1ccccc1,7.89
13,O=C(NCc1ccccc1F)C(=O)NCC1CCCN1S(=O)(=O)c1cccs1 (stereo not drawn),-8.75
14,CCOC(=O)c1c(C)c(C(=O)NCc2ccc3c(c2)OCO3)c(C)n1CC,7.11
15,CCOC(=O)CNC(=O)c1c(C)nn(-c2ccccc2)c1Cl,7.02
16,COc1ccccc1C(=O)NC(CCSC)C(=O)NC1CCCCCC1 (stereo not drawn),23
17,O=C(Nc1ccncc1)c1cccc(S(=O)(=O)N2CCc3ccccc32)c1,-41.1
18,Cc1ccc2ncnc(Oc3ncccc3NC(=O)C(C)(C)C)c2c1,13.8
19,Cc1ccc(S(=O)(=O)N2CCN(C(=O)CNC(=O)c3ccc(Br)o3)CC2)cc1,-45.4
20,O=Cc1ccc2oc3nc4n(c(=O)c3c(=O)c2c1)CCCS4,-35.7
21,O=C(NOCc1ccccc1)c1ccc([N+](=O)[O-])cc1,9.16
22,N#CC1(NC(=O)COC(=O)Cn2[nH]c(=O)c3ccccc3c2=O)CCCCC1,2.13

row,SMILES,"hERG current change (%, negative = inhibition) at 10uM [%]"
1,N#Cc1ccccc1Cn1cc(C(=O)c2ccco2)c2ccccc21,-27.8
2,COc1ccc(NC(=O)C2(N(C(=O)Cn3nnnc3N)c3ccc(OC)cc3)CCCCC2)cc1,24.6
3,COc1ccc(OC)c(-n2c(O)cnc2Nc2nc(C)cc(C)n2)c1,-3.88
4,CCOc1ccc(CCNC(=O)C2CCN(c3nnc(-n4cccc4)s3)CC2)cc1,-0.834
5,CCn1cc(CCC(=O)NCc2ccccc2OC)c2ccccc21,4.45
6,O=C(COC(=O)c1nc(Cl)ccc1Cl)NCCc1ccccc1,2.6
7,CCCN=C1CC(C)(C)CC(=O)/C1=C(/O)CCC,15.8
8,CCSc1nn2c(=O)c3ccccc3nc2s1,-13.2
9,Cn1c(=O)c2c(nc(CN3CCOCC3)n2CCCc2ccccc2)n(C)c1=O,-9
10,CC(C(=O)c1c[nH]c(C(N)=O)c1)c1ncc(C(F)(F)F)cc1Cl (stereo not drawn),3.74
11,CCN(CC)S(=O)(=O)c1ccc(C(=O)OCn2c(SC)nnc(C)c2=O)cc1,-10.4
12,Cc1nnc2ccc(-c3ccc(NC(=O)c4ccc(Cl)nc4)cc3)nn12,-15
13,CCCc1ccc(OCCNC(C)=O)cc1,4.46
14,O=C(Nc1ccc(O)cc1)c1cc2ccccc2c(=O)s1,15.7
15,CCc1ccc(/C=C2/Sc3ccccc3N(CC(=O)NCC3CCCO3)C2=O)cc1 (stereo not drawn),1.25
16,O=C(CN1C(=O)C2CCCCC2C1=O)Nc1ccccc1C(=O)O (stereo not drawn),10.7
17,S=c1[nH]c(-c2ccc(Br)cc2)cn1CCc1ccccc1,8.25
18,O=C(CSc1nc2ccccc2s1)NNC(=S)Nc1ccccc1,8.28
19,Cc1ccc2nc(C(=O)O)c(C(=O)O)nc2c1,6.96
20,NS(=O)(=O)c1ccc(NC(=O)c2ccccc2Cl)cc1,16.4
21,Cc1cc(C)c(NC(=O)CNC(=O)COC(=O)Cc2cccs2)c(C)c1,-2.81
22,Cc1ccc(-c2noc(CN3CCCCC3)n2)cc1,34.6

row,SMILES,"hERG current change (%, negative = inhibition) at 10uM [%]"
1,COc1cc(/C=N/Nc2ccccc2)ccc1O,-1.52
2,CCOP(=O)(OCC)c1nc(-c2ccc(F)cc2)oc1NCc1ccccc1,-32.4
3,Clc1ccccc1-c1nnc2n1CCCCC2,9.14
4,Cc1cc(C)n(-c2ccc(C(=O)Nc3cc(S(=O)(=O)N(C)C)ccc3Cl)cc2)n1,-3.29
5,CCC(=O)N1CCc2cc(S(=O)(=O)N3CCN(c4ccccn4)CC3)ccc21,10.9
6,CCC(=O)N1c2ccc(S(=O)(=O)CCC(=O)N3CCN(c4ccccc4F)CC3)cc2CC1C (stereo not drawn),-22.7
7,COc1ccc(S(=O)(=O)N2CCC(C(N)=O)CC2)cc1C(=O)N1CCCCCC1,12.6
8,Cc1ccc(C2CC(C(F)(F)F)n3nc(C(=O)Nc4c(C)n(C)n(-c5ccccc5)c4=O)cc3N2)cc1 (stereo not drawn),3.88
9,O=C(CNC(=O)c1cccc([N+](=O)[O-])c1)NC1CCCc2ccccc21 (stereo not drawn),-8.58
10,O=C1c2ccccc2C(=O)N1CCC(c1ccccc1)c1ccco1 (stereo not drawn),-15.5
11,CN(C)/C=C1\C(=O)N(c2ccc([N+](=O)[O-])cc2)N=C1c1ccccc1,-38.1
12,Cc1nc2ccc(N=NC3=C(O)CCCC3=O)cc2s1,10.2
13,COCCn1c(SCC(=O)Nc2sc(C)c(C)c2C#N)nnc1-c1ccc(OC)cc1,-52.1
14,COc1ccc(C(=O)CCN2CCN(c3ccccc3OC)CC2)cc1.Cl,-50.3
15,COc1cccc(NC(=O)CN(C)C(=O)c2cc(S(=O)(=O)N3CCCCCC3)ccc2OC)c1,-50.9
16,CCCCc1ccc(NC(=O)CSC2=C(C#N)C(c3ccco3)C3=C(CCCC3=O)N2)cc1 (stereo not drawn),10.3
17,Cc1cccc(N2CCN(C(c3ccccc3)c3nnnn3CC3CCCO3)CC2)c1C (stereo not drawn),4.3
18,O=C(NCc1ccccc1)NC1(C(=O)N2CCN3CCCC3C2)CCCCC1 (stereo not drawn),-1.89
19,Cc1ccc2c(c1)c1c3n2CC(=C2C(=O)OC(C)(C)OC2=O)NC3CCC1.Cl (stereo not drawn),-29.5
20,COCCCn1c(Cc2csc(Nc3cccc(Cl)c3)n2)nnc1SCC(=O)OC1CCCCC1,-11
21,COCCCn1c(-c2ccc(Cl)cc2)n[nH]c1=S,16.1
22,Cc1cc(NC(=O)c2ccc3c(c2)C(=O)N(CC(C)C)C3=O)no1,2.6

row,SMILES,"hERG current change (%, negative = inhibition) at 10uM [%]"
1,Cn1cc(Cl)c(C(=O)N2CCN(c3ncccn3)CC2)n1,10.6
2,COc1ccccc1N(CC(=O)NC1CCCC1)C(=O)CCC(=O)Nc1cc(C)on1,10.1
3,Cc1ccnc(NC(=O)CSc2ccccn2)c1,22.6
4,COc1cccc2sc(N(CCCN(C)C)C(=O)c3sc4ccccc4c3Cl)nc12.Cl,-24.6
5,Cc1ccc(CNC(=O)C2CCC(CNc3c(N4CCOCC4)c(=O)c3=O)CC2)cc1 (stereo not drawn),15.4
6,Cc1ccc(S(=O)(=O)/N=C2/NC(=O)/C(=C/c3ccccc3)S2)cc1,-47.1
7,CCOC(=O)c1sc(NC(=O)c2sccc2C)cc1C,3.8
8,O=C(Cn1nnc(-c2ccccc2)n1)N/N=C/c1ccco1,25.3
9,CCNC(=S)N1CCN(S(=O)(=O)c2cccc(C(F)(F)F)c2)CC1,0.783
10,O=C(COC(=O)c1n[nH]c2ccccc12)c1ccc(F)c(F)c1,-4.91
11,O=[N+]([O-])c1ccc(N2CCOCC2)cc1O,-6.04
12,CC1=C(C)CC(C(=O)c2ccc(C)cc2)C(C(=O)O)C1 (stereo not drawn),-3.59
13,C=CCN(c1ccc(C(=O)OC)cc1)S(=O)(=O)c1ccccc1,-7.78
14,COc1cc2c(cc1OC)C(C(=O)Nc1cccc(C)n1)C(c1cccnc1)N(C)C2=O (stereo not drawn),-9.56
15,Cc1nnc(NC(=O)CSc2ccc3nnc(-c4ccccn4)n3n2)s1,-9.79
16,COc1ccc(-n2nc3c(c2NC(=O)c2ccccc2S(=O)(=O)C(F)F)CS(=O)(=O)C3)cc1,-9.27
17,COc1ccc(Br)cc1/C=c1\sc2nc(-c3ccco3)nn2c1=O,12.8
18,COCCNC(=O)CSc1nc2c(n1-c1ccccc1)CCCC2,12.9
19,Cc1ccc(SCc2ccc(C(=O)Nc3ccccc3C(=O)NC(C)C)cc2)cc1,13.6
20,O=C1CC(c2ccc3c(c2)OCCO3)Oc2ccccc21 (stereo not drawn),3.81
21,CN(c1ncc(C(F)(F)F)cc1Cl)N1C(=O)c2cccc([N+](=O)[O-])c2C1=O,1.97
